This is one part of the list.
Columns and labels:
Assay in all cases: glycan array binding signal (z-score within array); higher = stronger binding
Conditions in all cases: glycan notation: IUPAC condensed, linker removed
[1] = biological target: Gal(b1-4)GlcNAc(b1-2)Man(a1-6)[GlcNAc(b1-2)Man(a1-3)]Man(b1-4)GlcNAc(b1-4)GlcNAc
How it was run: (§1)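 Columns mapping to the same glycan were averaged after glycan names were converted to IUPAC-condensed notation. The data come from 3228 arrays in the Consortium for Functional Glycomics database, limited to those with an available protein sequence. Binding is reported as a within-array Z-score averaged across arrays of one protein sequence and across linkers.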

[2] = biological target: Gal(b1-4)GlcNAc(b1-2)Man(a1-6)[Man(a1-3)]Man(b1-4)GlcNAc(b1-4)GlcNAc
How it was run: as §1

[3] = biological target: Gal(b1-4)GlcNAc(b1-2)[Gal(b1-4)GlcNAc(b1-4)]Man(a1-3)[Gal(b1-4)GlcNAc(b1-2)Man(a1-6)]Man(b1-4)GlcNAc(b1-4)GlcNAc
How it was run: as §1

[4] = biological target: Gal(b1-4)GlcNAc(b1-2)[Gal(b1-4)GlcNAc(b1-4)]Man(a1-3)[Gal(b1-4)GlcNAc(b1-2)[Gal(b1-4)GlcNAc(b1-6)]Man(a1-6)]Man(b1-4)GlcNAc(b1-4)GlcNAc
How it was run: as §1

[5] = biological target: Gal(b1-4)GlcNAc(b1-2)[Gal(b1-4)GlcNAc(b1-4)]Man(a1-3)[GlcNAc(b1-4)][Gal(b1-4)GlcNAc(b1-2)Man(a1-6)]Man(b1-4)GlcNAc(b1-4)GlcNAc
How it was run: as §1

[6] = biological target: Gal(b1-4)GlcNAc(b1-2)[Gal(b1-4)GlcNAc(b1-4)]Man(a1-3)[GlcNAc(b1-4)][Gal(b1-4)GlcNAc(b1-2)[Gal(b1-4)GlcNAc(b1-6)]Man(a1-6)]Man(b1-4)GlcNAc(b1-4)GlcNAc
How it was run: as §1

[7] = biological target: Gal(b1-4)GlcNAc(b1-2)[Gal(b1-4)GlcNAc(b1-6)]Man(a1-6)[Gal(b1-4)GlcNAc(b1-2)Man(a1-3)]Man(b1-4)GlcNAc(b1-4)GlcNAc
How it was run: as §1

[8] = biological target: Gal(b1-4)GlcNAc(b1-2)[Gal(b1-4)GlcNAc(b1-6)]Man(a1-6)[Gal(b1-4)GlcNAc(b1-2)Man(a1-3)]Man(b1-4)GlcNAc(b1-4)[Fuc(a1-6)]GlcNAc
How it was run: as §1

[9] = biological target: Gal(b1-4)GlcNAc(b1-2)[Gal(b1-4)GlcNAc(b1-6)]Man(a1-6)[GlcNAc(b1-4)][Gal(b1-4)GlcNAc(b1-2)Man(a1-3)]Man(b1-4)GlcNAc(b1-4)GlcNAc
How it was run: as §1

[10] = biological target: Gal(b1-4)GlcNAc(b1-2)[Gal(b1-4)GlcNAc(b1-6)]Man(a1-6)[GlcNAc(b1-4)][Gal(b1-4)GlcNAc(b1-2)[Gal(b1-4)GlcNAc(b1-4)]Man(a1-3)]Man(b1-4)GlcNAc(b1-4)[Fuc(a1-6)]GlcNAc
How it was run: as §1

[11] = biological target: Gal(b1-4)GlcNAc(b1-3)Gal(b1-3)GalNAc
How it was run: as §1

[12] = biological target: Gal(b1-4)GlcNAc(b1-3)Gal(b1-3)GlcNAc
How it was run: as §1

[13] = biological target: Gal(b1-4)GlcNAc(b1-3)Gal(b1-4)Glc
How it was run: as §1

[14] = biological target: Gal(b1-4)GlcNAc(b1-3)Gal(b1-4)GlcNAc
How it was run: as §1

[15] = biological target: Gal(b1-4)GlcNAc(b1-3)Gal(b1-4)GlcNAc(b1-2)Man(a1-3)[Gal(b1-4)GlcNAc(b1-3)Gal(b1-4)GlcNAc(b1-2)Man(a1-6)]Man(b1-4)GlcNAc(b1-4)GlcNAc
How it was run: as §1

[16] = biological target: Gal(b1-4)GlcNAc(b1-3)Gal(b1-4)GlcNAc(b1-2)Man(a1-3)[Gal(b1-4)GlcNAc(b1-3)Gal(b1-4)GlcNAc(b1-2)Man(a1-6)]Man(b1-4)GlcNAc(b1-4)[Fuc(a1-6)]GlcNAc
How it was run: as §1

[17] = biological target: Gal(b1-4)GlcNAc(b1-3)Gal(b1-4)GlcNAc(b1-2)[Gal(b1-4)GlcNAc(b1-3)Gal(b1-4)GlcNAc(b1-6)]Man(a1-6)[Gal(b1-4)GlcNAc(b1-3)Gal(b1-4)GlcNAc(b1-2)Man(a1-3)]Man(b1-4)GlcNAc(b1-4)GlcNAc
How it was run: as §1

[18] = biological target: Gal(b1-4)GlcNAc(b1-3)Gal(b1-4)GlcNAc(b1-2)[Gal(b1-4)GlcNAc(b1-3)Gal(b1-4)GlcNAc(b1-6)]Man(a1-6)[Gal(b1-4)GlcNAc(b1-3)Gal(b1-4)GlcNAc(b1-2)Man(a1-3)]Man(b1-4)GlcNAc(b1-4)[Fuc(a1-6)]GlcNAc
How it was run: as §1

[19] = biological target: Gal(b1-4)GlcNAc(b1-3)Gal(b1-4)GlcNAc(b1-3)Gal(b1-4)GlcNAc
How it was run: as §1

[20] = biological target: Gal(b1-4)GlcNAc(b1-3)Gal(b1-4)GlcNAc(b1-3)Gal(b1-4)GlcNAc(b1-2)Man(a1-3)[Gal(b1-4)GlcNAc(b1-3)Gal(b1-4)GlcNAc(b1-3)Gal(b1-4)GlcNAc(b1-2)Man(a1-6)]Man(b1-4)GlcNAc(b1-4)GlcNAc
How it was run: as §1

[21] = biological target: Gal(b1-4)GlcNAc(b1-3)Gal(b1-4)GlcNAc(b1-3)Gal(b1-4)GlcNAc(b1-2)Man(a1-3)[Gal(b1-4)GlcNAc(b1-3)Gal(b1-4)GlcNAc(b1-3)Gal(b1-4)GlcNAc(b1-2)Man(a1-6)]Man(b1-4)GlcNAc(b1-4)[Fuc(a1-6)]GlcNAc
How it was run: as §1

[22] = biological target: Gal(b1-4)GlcNAc(b1-3)Gal(b1-4)GlcNAc(b1-3)Gal(b1-4)GlcNAc(b1-2)[Gal(b1-4)GlcNAc(b1-3)Gal(b1-4)GlcNAc(b1-3)Gal(b1-4)GlcNAc(b1-6)]Man(a1-6)[Gal(b1-4)GlcNAc(b1-3)Gal(b1-4)GlcNAc(b1-3)Gal(b1-4)GlcNAc(b1-2)Man(a1-3)]Man(b1-4)GlcNAc(b1-4)[Fuc(a1-6)]GlcNAc
How it was run: as §1

B1: CML1 (Coprinopsis cinerea) (protein)
chain: MAIFHTGSELFIITRGPGKLTLLTWGGLNNLRSVIGAIPTENTGVTKWAVSFSHNYTRFSFIWEGQGEACYQIGNGLTRSPVGRSWSSSSTIHWGSSTVITEDVTSVVPGAVNRDKVTTAYALPDNL
glycan array binding signal (z-score) [1]: -0.345 | glycan array binding signal (z-score) [2]: -0.312 | glycan array binding signal (z-score) [3]: -0.294 | glycan array binding signal (z-score) [4]: -0.334 | glycan array binding signal (z-score) [5]: -0.335 | glycan array binding signal (z-score) [6]: -0.343 | glycan array binding signal (z-score) [7]: -0.329 | glycan array binding signal (z-score) [8]: -0.319 | glycan array binding signal (z-score) [9]: -0.329 | glycan array binding signal (z-score) [10]: -0.355 | glycan array binding signal (z-score) [11]: -0.345 | glycan array binding signal (z-score) [12]: -0.326 | glycan array binding signal (z-score) [13]: -0.333 | glycan array binding signal (z-score) [14]: -0.341 | glycan array binding signal (z-score) [15]: -0.317 | glycan array binding signal (z-score) [16]: -0.313 | glycan array binding signal (z-score) [17]: -0.351 | glycan array binding signal (z-score) [18]: -0.313 | glycan array binding signal (z-score) [19]: -0.297 | glycan array binding signal (z-score) [20]: -0.318 | glycan array binding signal (z-score) [21]: -0.285 | glycan array binding signal (z-score) [22]: -0.29
